In all, about 230,000 compounds went through this assay and about 3,600 (1.6%) were called active. Inconclusive results, whose numbers are uncertain, are shown with a selection of clear calls. The call rests on the fitted dose curve; in most records, active means well fitted inhibition curve with a large enough effect (not every such curve was filed as active); inconclusive means small, poorly fitted or top-dose-only effect, or another doubt; inactive means no such curve, though single readings can be large or run the other way. Where the call is inconclusive, the potency comes from a doubtful curve fit.
Biological target: Lysine-specific demethylase 4E (Homo sapiens) (UniProt B2RXH2)
Experiment: qHTS Assay for Inhibitors of Human Jumonji Domain Containing 2E (JMJD2E)
Details: JMJD2E catalytic domain, FDH-coupled NADH fluorescence (FDH is formaldehyde dehydrogenase); series mostly up to 57.1 µM
Further: nearly all actives have a fitted effect of over 50% in size.
Potency means the concentration at half of the fitted maximal effect; tags describe the fitted curve by direction and shape.

Chain of UniProt B2RXH2 (B2RXH2 whole entry, looked up, the tested form may be a part): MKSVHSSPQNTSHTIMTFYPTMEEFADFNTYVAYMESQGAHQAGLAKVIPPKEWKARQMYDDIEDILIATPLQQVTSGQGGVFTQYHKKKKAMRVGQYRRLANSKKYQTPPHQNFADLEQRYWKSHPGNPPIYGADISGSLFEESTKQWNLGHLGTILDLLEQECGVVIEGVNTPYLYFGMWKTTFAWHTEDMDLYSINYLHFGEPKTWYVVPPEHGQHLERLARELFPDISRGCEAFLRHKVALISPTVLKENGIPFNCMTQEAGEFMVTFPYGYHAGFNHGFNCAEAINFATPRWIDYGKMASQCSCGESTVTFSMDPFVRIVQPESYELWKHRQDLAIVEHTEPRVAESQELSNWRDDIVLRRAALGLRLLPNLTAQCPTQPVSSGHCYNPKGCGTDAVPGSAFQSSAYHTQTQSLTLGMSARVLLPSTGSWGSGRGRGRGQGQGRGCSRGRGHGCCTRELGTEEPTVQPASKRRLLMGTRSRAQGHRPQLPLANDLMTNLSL

Structure (SMILES)	Potency
CC(=O)c1cccc(S(=O)(=O)NCC(c2ccco2)N2CCCCC2)c1 (stereo unspecified)	inactive
COc1ccc(C(=O)Oc2cccc3cccnc23)cc1[N+](=O)[O-]	inconclusive: 12.6 µM [inhibitor, partial curve, poor fit]
C/C(=N/NS(=O)(=O)c1ccc(Cl)cc1)c1cccc(NC(=O)c2ccc(Cl)cc2Cl)c1	inactive
COc1ccc(S(=O)(=O)N(C)c2ccc(C(=O)N3CCCCC3)cc2)cc1OC	inactive
COc1ccccc1NS(=O)(=O)c1cc(NC(=O)c2cccs2)ccc1N1CCOCC1	inconclusive: 39.8 µM [inhibitor, single point]
CCN(CC)CCn1c(SCC(=O)NCCC2=CCCCC2)nc2c(sc3ccccc32)c1=O	inconclusive: 25.1 µM [inhibitor, partial curve]
CCNC(=S)Nc1ccc(-c2nc3ccccc3[nH]2)cc1	inconclusive: 22.4 µM [inhibitor, partial curve]
CCc1ccc(NC(=S)Nc2cc(C(=O)O)ccc2N2CC3CC(C2)c2cccc(=O)n2C3)cc1 (stereo unspecified)	inconclusive: 39.8 µM [inhibitor, single point]
CCCCOc1ccc(CNC(=S)N/N=C/c2ccc(OC)c(OC)c2)cc1	inactive
O=[N+]([O-])c1ccc(C2=Nn3c(Cn4nnc5ccccc54)nnc3SC2)cc1	inactive
COC(=O)c1ccc(NC(=O)CSc2nc3cccnc3n2C)cc1	inconclusive: 39.8 µM [inhibitor, single point]
N#Cc1c(NCCCO)nc(-c2ccco2)c2c1CCCC2	inconclusive: 28.2 µM [inhibitor, partial curve]
COC(=O)CSc1ccc(-c2nc3ccc(C)cc3[nH]2)cn1	inconclusive: 28.2 µM [inhibitor, partial curve]
CC1CCCN(C(=S)Nc2ccc3nc4n(c(=O)c3c2)CCCCC4)C1 (stereo unspecified)	inconclusive: 22.4 µM [inhibitor, partial curve]
CCC(=O)Oc1ccc2c(c1)OC1(OC(C)=O)OC(C)CC1=C2C (stereo unspecified)	inconclusive: 35.5 µM [inhibitor, partial curve]
CCN1CCCc2cc(CN(CCN3CCOCC3)C(=S)Nc3ccc(C)cc3)ccc21	inconclusive: 39.8 µM [inhibitor, single point]
Clc1ccc2ncc(-c3nnnn3-c3ccccc3)c(-c3ccccc3)c2c1	inactive
CCOc1ccc2ncc(S(=O)(=O)c3ccccc3)c(N3CCC4(CC3)OCCO4)c2c1	inconclusive: 39.8 µM [inhibitor, single point]
CCCNC(=O)NC(=O)CSc1nnc(-c2ccncc2)n1CC	inconclusive: 39.8 µM [inhibitor, single point]
Cc1ccc(S(=O)(=O)N(C)C)cc1NC(=O)Nc1c(-c2ccccc2)noc1C	inconclusive: 39.8 µM [inhibitor, single point]
CN(C)CCNc1oc(COc2ccc(-c3ccccc3)cc2)nc1C#N	inactive
Clc1cc(-c2ccc(/C=N/n3cnnc3)o2)ccc1Br	inconclusive: 35.5 µM [inhibitor, single point]
COc1ccc(OCCOc2ccc(C)nc2[N+](=O)[O-])cc1	inactive
Cc1cc(C)nc(SCc2nc3ncccn3c2Br)n1	inconclusive: 31.6 µM [inhibitor, partial curve]

Structure (SMILES)	Potency
Cc1cc(Oc2nc3c(C)cccn3c(=O)c2/C=C(\C#N)S(=O)(=O)c2ccccc2)ccc1Cl	inconclusive: 7.08 µM [inhibitor, single point]
Cc1ccc(N=Cc2nc(/C=C/c3cccc([N+](=O)[O-])c3)oc2O)cc1	inactive
O=c1[nH]c(O)c(/C=C2\C=Nc3ccccc32)[nH]1	inactive
C(=N\Nc1nc(-c2ccccc2)cs1)/c1ccco1	inconclusive: 20 µM [inhibitor, single point]
O=C(NCc1cccc(F)c1)c1ccc(N2C(=O)Cn3c(cc4sccc43)C2=O)cc1	inconclusive: 35.5 µM [inhibitor, partial curve]
CN1C(C(=O)NCCc2cccs2)CC2Cn3c(nc4cc5ccccc5cc43)C21 (stereo unspecified)	inconclusive: 35.5 µM [inhibitor, single point]
O=C(/C=C/c1ccc2c(c1)OCO2)NCCSCc1cccc(Cl)c1	inconclusive: 35.5 µM [inhibitor, partial curve]
CCOC(=O)c1c(CN(C)C)oc2cc(CN(C)C)c(O)c(CSc3ccccc3)c12	inconclusive: 28.2 µM [inhibitor, single point]
Cc1nc2ccc(NC(=S)NCc3ccccc3)cc2nc1C	inactive
COc1ccc(-c2cc(C(F)(F)F)nc(SCC(=O)NCc3cccs3)n2)cc1	inconclusive: 28.2 µM [inhibitor, partial curve]
COc1cc2c(cc1OC)C(C(=O)O)C(c1cc(Br)c(O)c(OC)c1)N(C)C2=O (stereo unspecified)	inactive
COc1ccc2cc(C(=O)C3CCCN(Cc4cnc(C)s4)C3)ccc2c1 (stereo unspecified)	inconclusive: 31.6 µM [inhibitor, partial curve]
COc1ccc(Nc2nc(N)c([N+](=O)[O-])c(NCc3ccccc3)n2)cc1	inactive
O=C(/C=C/c1cccs1)N1CCC2(CC1)Oc1ccc(Cl)cc1C(=O)C21CC(c2cccnc2)=NO1 (stereo unspecified)	inactive
Cc1cc(NC(=O)c2cn(C3CCCCC3)c(=O)c3c2c2ccccc2n3C)no1	inconclusive: 28.2 µM [inhibitor, partial curve]
COC(=O)/C(C#N)=C/c1ccc(-c2ccc(S(N)(=O)=O)cc2)o1	inconclusive: 22.4 µM [inhibitor, single point]
NS(=O)(=O)c1ccc(NC(=S)NCc2ccc(Cl)cc2)cc1	inactive
O=C(OCc1cccs1)c1ccccc1NS(=O)(=O)c1ccc2c(c1)OCCO2	inconclusive: 35.5 µM [inhibitor, single point]
COc1ccc(C2/C(=C(/O)c3ccccc3)C(=O)C(=O)N2CCO)cc1 (stereo unspecified)	inactive
COCCNC(=O)CSc1cc(=O)n(C)c2cc(Cl)ccc12	inconclusive: 31.6 µM [inhibitor, partial curve]
O=C(CSc1nnc2c(Cl)cc(Cl)cn12)N1CCN(S(=O)(=O)c2ccccc2)CC1	inconclusive: 7.08 µM [inhibitor, single point]
CCOC(=O)c1ccc(N=C2NC(=O)CS2)cc1	inactive
CN1CCc2ccccc2Cc2[nH]c3ccccc3c2CC1	inconclusive: 20 µM [inhibitor, partial curve, poor fit]
Cc1ccc2[nH]c(=O)c(C(c3nnnn3C3CCCC3)N(Cc3cccnc3)Cc3ccco3)cc2c1 (stereo unspecified)	inactive

Structure (SMILES)	Potency
COCCNC(=O)c1ccc2c(c1)nc(C)n2-c1cccc(F)c1	inactive
Cc1cccn2c(/C=N/OCc3cccc(F)c3)c(-c3ccc(Cl)cc3)nc12	inconclusive: 35.5 µM [inhibitor, partial curve]
CCCN1C(=O)/C(=C/c2ccco2)SC1=Nc1ccc(OC)cc1	inconclusive: 25.1 µM [inhibitor, single point]
COc1ccccc1C1C(C#N)=C(N)Oc2cc(C)n(CCCn3ccnc3)c(=O)c21 (stereo unspecified)	inconclusive: 28.2 µM [inhibitor, partial curve]
O=C(Oc1ccc(-c2cnc3ccccc3n2)cc1)c1cc([N+](=O)[O-])ccc1Cl	inactive
O=C(Nc1ccc(Cl)cc1)OCc1cc(-c2ccccc2Cl)on1	inactive
COc1cc(-c2nc3cnccn3c2Nc2c(C)cccc2C)ccc1O	inconclusive: 28.2 µM [inhibitor, partial curve]
CC(=NCCc1c(C)[nH]c2ccc(C)cc12)C1=C(O)CC(c2ccccc2)CC1=O (stereo unspecified)	inactive
O=C(N/N=C1\CC2CC=CC12)c1ccc(O)cc1 (stereo unspecified)	inactive
CCN(CC)CCNC(=O)c1c(O)c2c([nH]c1=O)CCCC2	inconclusive: 31.6 µM [inhibitor, single point]
S=C(NCc1cccnc1)Nc1cccc2ccccc12	inconclusive: 31.6 µM [inhibitor, single point]
CCOc1ccc(NC(=O)Nc2cccs2)cc1	inactive
COc1ccc(-c2[nH]c(-c3ccc(C)cc3)nc2SCC(=O)NCc2ccco2)cc1OC	inconclusive: 28.2 µM [inhibitor, partial curve]
Cc1ccc2[nH]c(C)c(CCNC(=O)c3cc4cc([N+](=O)[O-])ccc4oc3=O)c2c1	inactive
CC(C)Oc1ccc(C2C(C(=O)c3ccco3)=C(O)C(=O)N2Cc2cccnc2)cc1 (stereo unspecified)	inactive
CCC(=O)Nc1c(C#N)c2nc3ccccc3nc2n1C1CCCCC1	inconclusive: 39.8 µM [inhibitor, single point]
C=C(C(=O)c1ccccc1)C(CC(=O)c1ccccc1)c1ccccc1 (stereo unspecified)	inconclusive: 35.5 µM [inhibitor, single point]
CC(NC(=O)c1ccc(Cl)s1)C1CCCO1 (stereo unspecified)	inactive
COc1ccc(C2c3[nH]c4ccccc4c3CC3C(=O)N(CCc4ccc(OC)c(OC)c4)CC(=O)N32)cc1 (stereo unspecified)	inactive
COc1ccc2c(C)cc(SCc3c(C)noc3C)nc2c1	inconclusive: 39.8 µM [inhibitor, single point]
COC(=O)CC1C2(C)CC34OC5(C)O[C@@]6(C7/C(=C(/O)C(C)C)C(=O)OC(c8ccoc8)[C@]7(C)C(OC(C)=O)C(OC(C)=O)[C@]6(O5)[C@@]13C)C(OC(C)=O)[C@]4(O)C2OC(=O)C(C)C (stereo partly specified)	inactive
Cc1ccc(NC2(c3nnnn3-c3c(C)cccc3C)CCCCC2)cc1	inactive
Cc1ccc(CN2CC(C(=O)Nc3nnc(SCc4c(Cl)cccc4Cl)s3)CC2=O)cc1 (stereo unspecified)	inactive
